Measured values taken from PubChem BioAssay AID1508624 (National Center for Advancing Translational Sciences (NCATS), 2021).
About 120 (0.25%) of roughly 48,000 compounds were called active. Inconclusive results (about 4%) are left out. Calls come from the whole dose curve; as a rule, active = well fitted activation curve with a large enough effect; inconclusive = small, poorly fitted or top-dose-only effect, or another doubt; inactive = no such curve, though single readings can be large or run the other way. Some of the results follow.

test: Primary qHTS for Identification of Small Molecule Activators of Huntingtin-Antisense Promoter Activity; details: HEK293 HTT-AS promoter firefly luciferase reporter, 24 h; series mostly up to 57.5 µM; activity change, positive = activation: at the top concentration; note: nearly all actives have a fitted effect of over 55% in size
Summary of the method: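 Firefly luciferase readout (Dual-Glo, 10 min RT) after 24 h, 37 °C compound exposure (final up to 57.5 uM) of HEK293 reporter cells cultured 24 h beforehand; PTC124 at 50 uM final as control inhibitor; activity scaled vehicle 0%, zero RLU -100%.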

Activity change, positive = activation, inactive:
CCOc1ccc(NC(=O)C2Cc3ccccc3N2C(=O)c2ccccc2)cc1 (stereo not given) -13.2%
CCCCOc1ccc(CNC(=O)C2CCN(c3nnc(-n4cccc4CNc4ccc(C)cc4)s3)CC2)cc1 -42.7%
COc1cc(Cn2c(=O)sc3ccccc32)ccc1OC(C)C -44.6%
COc1ccccc1NC(=O)Cc1c(C(=O)O)[nH]c2ccc(Cl)cc12 -4.48%
Cc1ccc(-c2nc3cc(C(C)C)ccc3o2)cc1NC(=O)c1cccs1 18.4%
COCCn1c(C)cc(O)c(C(c2ccccc2)N2CCN(C)CC2)c1=O (stereo not given) -1.39%
Cc1cccc(NC(=O)CSc2nc3ccc(NC(=O)c4ccco4)cc3s2)c1 -7.25%
Cc1cc(NC(=O)C(C)C)cc(-c2nc3ncccc3o2)c1O -9.49%
Cc1ccc2nc(-c3ccc(O)cc3)c(Nc3ccc4c(c3)OCO4)n2c1 0.383%
CC(C)N(Cc1ccccc1)C(=O)CCS(=O)(=O)c1cc2c(cc1Cl)NC(=O)CO2 -19.5%
Cc1cc(C)n2nc(SCC(=O)Nc3ccccc3)nc2n1 -1.16%
Cc1cc2nc(-c3cc(NC(=O)c4cc5ccccc5o4)ccc3Cl)oc2cc1C 13%
CCc1ccc(NC(=O)CSc2nc3n[nH]c(C)c3c(=N)n2-c2ccccc2C)cc1 -29.4%
CCCNC(=O)C1CCN(S(=O)(=O)c2ccc3c(c2)CCCN3C(C)=O)CC1 -9.7%
Cc1oc(-c2ccc(Cl)cc2)nc1CS(=O)CC(=O)NCc1ccc(Cl)cc1 (stereo not given) -20.7%
Cc1ccccc1OCc1nnc(SCc2cc(=O)c3ccccc3[nH]2)n1C 9.61%
COc1ccc(N(CC(=O)NCCc2cccc(C)c2)S(=O)(=O)c2c(C)nn(C)c2C)cc1 -20.9%
CCOC(=O)C1=C(CS(=O)(=O)c2c(C)cc(C)cc2C)NC(=O)NC1c1cccc(OC)c1 (stereo not given) -4.73%
COc1ccccc1N1CCN(C(CNC(=O)C(=O)NCCCN(C)C)c2cccnc2)CC1 (stereo not given) -1.45%
N#Cc1c(NC(=O)c2cc3nc(-c4ccc(Br)cc4)cc(C(F)(F)F)n3n2)sc2c1CCCC2 0.996%
O=C1CC(c2ccccc2C(F)(F)F)c2c(c3ccccc3[nH]c2=O)O1 (stereo not given) -14.5%
CCOc1ccc(OCC)c(NC(=O)C2CCN(S(=O)(=O)c3ccc(Br)s3)CC2)c1 -8.92%
COc1ccc2nc(SCC(=O)c3c(C)[nH]c4ccccc34)nc(C)c2c1 -9.77%
O=C(Nc1ccc(F)cc1)[C@H](CSCc1ccccc1)N1Cc2ccccc2C1=O -16.7%
Cc1ccc(N2CCN(C(=O)Cc3c(C(=O)O)c(C)cn3C)CC2)c(C)c1 -22%
Cc1ccc(S(=O)(=O)c2nnn3c2nc(N2CCN(c4ccc(F)cc4)CC2)c2cc(Cl)ccc23)cc1C 24.4%
O=C(COC(=O)CCCC1=NS(=O)(=O)c2ccccc2N1)Nc1ccc(Br)cc1 -18.9%
COc1cccc(-n2c(=O)c3c(C)c(C(=O)N(C)C)sc3n(CC(=O)NCCc3ccc(OC)c(OC)c3)c2=O)c1 -9.08%
Cc1cccc(NC(=O)N2CCc3c(sc4c3CCCC4)C2c2ccc(F)cc2)c1 (stereo not given) -24.4%
NC(=O)c1cccnc1
OCc1ccc(-c2nn(Cc3ccccc3)c3ccccc23)o1 -53.8%
CCc1ccc(NC(=O)CSc2nc3nccnc3c(=O)n2CCc2c[nH]c3ccccc23)cc1 -22.5%
CCc1ccc(NC(=O)C2CCN(C(=O)N3CC(CC)Oc4ccccc43)CC2)cc1 (stereo not given) -25.5%
COc1cccc(NC(=O)CCNS(=O)(=O)c2ccc(Br)s2)c1 -15.5%
COc1ccc(CNC(=O)Cc2csc3ccccc23)cc1OC 6.51%
CCc1nn(CC(=O)N2CCCCC2)c(=O)c2cc3sccc3n12 -15%
CC(NC(=O)c1cc(Sc2ccc(F)cc2F)nc2ccccc12)c1ccccc1 (stereo not given) -28.4%
CCc1ccccc1NC(=O)C1CCC(CNS(=O)(=O)c2ccc3c(c2)CC(C)N3C(C)=O)CC1 (stereo not given) -22%
COc1ccc2nc(NC(=O)c3nc(SCc4ccc(F)cc4)ncc3Cl)sc2c1 9.44%
Cc1cn2c(=O)c(S(=O)(=O)NCCc3ccccc3)c(C)nc2s1 -12.5%
CCOc1ccc(-c2nnc(SCC(=O)NCCC(C)C)nc2-c2ccc(OCC)c(OC)c2)cc1OC -1.94%
CC(C)OCCCNC(=O)c1ccc(-n2c(-c3ccccc3)cc3c2CCCC3)cc1 4.43%
COc1cccc(C(=O)NCC(c2ccc(N(C)C)cc2)N2CCCC2)c1OC (stereo not given) 6.28%
CC(C)CN1CCc2nc(N3CCN(c4ncccn4)CC3)ncc2C1 15.8%
COc1cc(-c2noc(-c3ccc(NCc4cccnc4)c([N+](=O)[O-])c3)n2)cc(OC)c1OC -8.38%
COc1ccc(OC)c(CNC(=O)CCCn2ccc3cc(S(=O)(=O)N4CCCC4)ccc32)c1 -24%
CCOc1ccc(CNC(=O)CCC(=O)N2CC(C)Sc3ccccc32)cc1 (stereo not given) -3.36%
CCOc1ccc(CCNC(=O)CCCn2nc(C)c3sc4ccccc4c3c2=O)cc1OCC -31.3%
O=C(CSc1nccn1-c1ccccc1)Nc1nc2ccccc2s1 3.79%
CCn1c2ccccc2c2nnc(SCCN3CCCCC3)nc21 -2.77%
N#C/C(=C/c1cn(Cc2ccc(F)cc2)c2ccccc12)C(=O)Nc1cccc(Cl)c1 -18.9%
COc1ccccc1Nc1nn2c(=O)c3ccc(C(=O)NCCCOC(C)C)cc3nc2s1 -30.5%
COC(=O)CC1c2cc(OC)c(OC)cc2CCN1C(=O)Nc1ccc(C)cc1Cl (stereo not given) 9.63%
CCOc1ccc(OCC)c(NC(=O)Cn2ncc3c4ccccc4n(Cc4ccccc4)c3c2=O)c1 -4.43%
CCc1ccc(CNC(=O)c2cccc(-n3cnc4cccnc43)c2C)cc1 -20.7%
CCC1CN(C(=O)N2CCC(C(=O)NCCN(C)C)CC2)c2ccccc2O1 (stereo not given) -3.16%
Cn1ccc2cc(S(=O)(=O)N3CCCN(C(=O)Nc4ccccc4Br)CC3)ccc21 -25.6%
Cc1ccc(NC(=O)c2cnc(SCC(=O)N3CCOCC3)n(C)c2=O)cc1 -14.9%
COc1cc2ccccc2cc1C(=O)Nc1cccc(-c2nc3cc(C)c(C)cc3o2)c1C -11.4%
COc1ccc2oc(=O)c(C(=O)NCCc3c(C)[nH]c4c(Cl)cccc34)cc2c1 -14%
O=C(Nc1cccc(Cl)c1Cl)c1ccc2c(c1)N(Cc1cccc(Cl)c1)C(=O)c1ccccc1S2(=O)=O -13.9%
Cc1nc2nc(NCc3cccc(Br)c3)[nH]n2c(=O)c1Cc1ccccc1 1.73%
CCc1ccccc1NC(=O)N1CCN(c2cc(-c3noc(C)n3)ccc2C)CC1 -21.8%
CCOC(=O)c1cccc(NC(=O)C(CC(C)C)N2Cc3ccccc3C2=O)c1 (stereo not given) -24%
Cc1ccc(CN(C(=O)COc2cccc([N+](=O)[O-])c2)c2ccccn2)o1 -22.5%
O=S(=O)(Nc1ccc(Cl)cc1)c1ccc(NS(=O)(=O)c2ccc3c(c2)OCCO3)cc1 -20.8%
Cn1nnnc1SCCNCc1ccc(F)cc1 -7.98%
CCC(C)NC(=O)c1cnn(-c2ccc(Cl)cc2)c1C1CCN(C(=O)OC(C)(C)C)CC1 (stereo not given) -10.2%
O=C(NCCc1ccc(Cl)cc1)c1ccc(CS(=O)Cc2cccc(Cl)c2)o1 (stereo not given) -36.9%
Nc1nnc(SCC(=O)Nc2ccccc2C(F)(F)F)s1 -10%
COC(=O)c1n[nH]n(-c2ccccc2)c1=O 0.499%
CN(C1CCCCC1)S(=O)(=O)c1ccc2c(c1)c(=O)c(C(=O)NCCc1ccccc1)cn2C 10.6% [at 11.5 µM, percent change from vehicle, -100% = no light]
Cc1cccc(NC(=O)C2CCCN(S(=O)(=O)c3cnc[nH]3)C2)c1C (stereo not given) -17.1% [at 11.5 µM, percent change from vehicle, -100% = no light]
Cc1ccc2c(c1)cc(C(=O)Nc1ccc(F)cc1F)n2C 12.9%
CCOC(=O)c1cc(NC(=O)c2ccc(F)cc2)c(=O)n2c1oc1ccccc12 -9.6%
Cc1ccc(C(=O)N(Cc2ccc(N(C)C)cc2)Cc2ccco2)cc1 -22.8%
Cn1c(=O)c2cc(C(=O)N3CCN(c4ccc(Cl)cc4)CC3)sc2c2ccccc21 -4.98%
Cc1oc(-c2ccc(C(=O)Nc3cc(F)ccc3F)cc2)nc1COc1ccccc1 -7.74%
COc1cccc(NC(=O)CN(C)S(=O)(=O)c2ccc3nc(C)sc3c2)c1 -12.6%
COc1ccc(C)cc1N(C)C(=O)c1c(C)oc2ncnc(N3CCOCC3)c12 -7.62%
CN(c1ccc(Cl)cc1)S(=O)(=O)c1nnc(NC(=O)C2CCCCC2)s1 -16.2%
COc1cc(C(=O)Oc2c(Sc3ccc(C)cc3)c(C)nn2-c2ccccc2)cc(OC)c1OC -30.9%
CCOc1ccccc1NC(=O)c1c(NC(=O)c2ccccc2C)sc2c1CCC(C)C2 (stereo not given) -7.2%
COC(=O)c1c(C)sc(-c2c(-c3ccc4c(c3)OCCO4)[nH]c3c2c(=O)n(C)c(=O)n3C)c1O -13.6%
CCNC(=O)c1cnc2sc(N3CCCCCC3)nn2c1=O 21.1%
Cc1ccc(CNC(=O)CCS(=O)(=O)c2cc(Br)cc3c2N(C(=O)C2CC2)CC3)cc1 -5.09%
COc1cc2c(c(OC)c1OC)-c1ccc(OC)c(=O)cc1[C@@H](NC(C)=O)CC2
Cc1ccc(-n2nc(CO)c(C(=O)NCc3cccs3)n2)cc1 -19.1%
O=C(Nc1ccc(Cl)cc1)N1CCN(c2ccc3nnc(-c4ccc(F)cc4)n3n2)CC1 -28.6%
COc1ccccc1CCNC(=O)C(=O)NCC(c1ccco1)S(=O)(=O)c1ccc(C)cc1 (stereo not given) -24.4%
Cc1cc(C)c(S(=O)(=O)NCC(c2cccs2)S(=O)(=O)c2ccccc2)c(C)c1 (stereo not given) -38.9%
COc1ccccc1Nc1cc(C(=O)NCc2cccs2)c2ccccc2n1 -23.1%
Cc1cc(NC(=O)Nc2nc3c(s2)CCCCCC3)ccc1Br -11.4%
CCCCn1c(CNC(=O)c2ccc(OC)cc2)nnc1SCC(=O)Nc1ccc(OC)cc1 -22.1%
Cc1ccc(NCc2nc3ccccc3n2CCOc2ccccc2)cc1 11%
